# Data from paper PMC9911399, “Two distinct binding modes provide the RNA-binding protein RbFox with extraordinary sequence specificity”.
# Substitutions are numbered along the chain they refer to; changes in the protein carry UniProt numbers. The list shows a part of the results.
# T1: RBFOX1 RRM RbFoxmut (Fox-RRM*) (Homo sapiens, UniProt Q9NWB1 109-208, R118D;E147R;N151S;E152T)
# T1 sequence: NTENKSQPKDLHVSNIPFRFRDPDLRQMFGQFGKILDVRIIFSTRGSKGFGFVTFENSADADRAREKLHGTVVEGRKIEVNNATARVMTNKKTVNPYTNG
# B1: UUGCGAU (DNA:RNA)
# RNA: GGGAGACCGGAAUUCAGAUUGUCCUUGCGAUUUAAAUCCCGUCGUAGCCACCA
# DNA 1: CAATCTGAATTCCGGTCTCCC
# DNA 2: TGGTGGCTACGACGGGATT
# B2: GCUUUAC (DNA:RNA)
# RNA: B1 RNA with U25G, U26C, G27U, C28U, G29U, U31C
# DNA 1: CAATCTGAATTCCGGTCTCCC
# DNA 2: TGGTGGCTACGACGGGATT
# B3: UCAACUA (DNA:RNA)
# RNA: B1 RNA with U26C, G27A, C28A, G29C, A30U, U31A
# DNA 1: CAATCTGAATTCCGGTCTCCC
# DNA 2: TGGTGGCTACGACGGGATT
# B4: UAGCGAC (DNA:RNA)
# RNA: B1 RNA with U26A, U31C
# DNA 1: CAATCTGAATTCCGGTCTCCC
# DNA 2: TGGTGGCTACGACGGGATT
# B5: GAGACAU (DNA:RNA)
# RNA: B1 RNA with U25G, U26A, C28A, G29C
# DNA 1: CAATCTGAATTCCGGTCTCCC
# DNA 2: TGGTGGCTACGACGGGATT
# B6: AAGAUAC (DNA:RNA)
# RNA: B1 RNA with U25A, U26A, C28A, G29U, U31C
# DNA 1: CAATCTGAATTCCGGTCTCCC
# DNA 2: TGGTGGCTACGACGGGATT
# B7: GCGAUUA (DNA:RNA)
# RNA: B1 RNA with U25G, U26C, C28A, G29U, A30U, U31A
# DNA 1: CAATCTGAATTCCGGTCTCCC
# DNA 2: TGGTGGCTACGACGGGATT
# B8: UCAAAAG (DNA:RNA)
# RNA: B1 RNA with U26C, G27A, C28A, G29A, U31G
# DNA 1: CAATCTGAATTCCGGTCTCCC
# DNA 2: TGGTGGCTACGACGGGATT
# B9: CAGACGG (DNA:RNA)
# RNA: B1 RNA with U25C, U26A, C28A, G29C, A30G, U31G
# DNA 1: CAATCTGAATTCCGGTCTCCC
# DNA 2: TGGTGGCTACGACGGGATT
# B10: UGCUCGC (DNA:RNA)
# RNA: B1 RNA with U26G, G27C, C28U, G29C, A30G, U31C
# DNA 1: CAATCTGAATTCCGGTCTCCC
# DNA 2: TGGTGGCTACGACGGGATT
# B11: UGAUUUA (DNA:RNA)
# RNA: B1 RNA with U26G, G27A, C28U, G29U, A30U, U31A
# DNA 1: CAATCTGAATTCCGGTCTCCC
# DNA 2: TGGTGGCTACGACGGGATT
# B12: UACCCAU (DNA:RNA)
# RNA: B1 RNA with U26A, G27C, G29C
# DNA 1: CAATCTGAATTCCGGTCTCCC
# DNA 2: TGGTGGCTACGACGGGATT
# B13: CUCUCCA (DNA:RNA)
# RNA: B1 RNA with U25C, G27C, C28U, G29C, A30C, U31A
# DNA 1: CAATCTGAATTCCGGTCTCCC
# DNA 2: TGGTGGCTACGACGGGATT
# B14: AUCUCGC (DNA:RNA)
# RNA: B1 RNA with U25A, G27C, C28U, G29C, A30G, U31C
# DNA 1: CAATCTGAATTCCGGTCTCCC
# DNA 2: TGGTGGCTACGACGGGATT
# B15: AGCUCCG (DNA:RNA)
# RNA: GGGAGACCGGAAUUCAGAUUGUCCAGCUCCGUUAAAUCCCGUCGUAGCCACCA
# DNA 1: CAATCTGAATTCCGGTCTCCC
# DNA 2: TGGTGGCTACGACGGGATT
# B16: CACAAGU (DNA:RNA)
# RNA: B15 RNA with A25C, G26A, U28A, C29A, C30G, G31U
# DNA 1: CAATCTGAATTCCGGTCTCCC
# DNA 2: TGGTGGCTACGACGGGATT
# B17: GGCAGUC (DNA:RNA)
# RNA: B15 RNA with A25G, U28A, C29G, C30U, G31C
# DNA 1: CAATCTGAATTCCGGTCTCCC
# DNA 2: TGGTGGCTACGACGGGATT
# B18: UUCUUCU (DNA:RNA)
# RNA: B15 RNA with A25U, G26U, C29U, G31U
# DNA 1: CAATCTGAATTCCGGTCTCCC
# DNA 2: TGGTGGCTACGACGGGATT
# B19: CUCGGUA (DNA:RNA)
# RNA: B1 RNA with U25C, G27C, C28G, A30U, U31A
# DNA 1: CAATCTGAATTCCGGTCTCCC
# DNA 2: TGGTGGCTACGACGGGATT
# B20: CUGCUCA (DNA:RNA)
# RNA: B1 RNA with U25C, G29U, A30C, U31A
# DNA 1: CAATCTGAATTCCGGTCTCCC
# DNA 2: TGGTGGCTACGACGGGATT
# B21: CAACCCA (DNA:RNA)
# RNA: B15 RNA with A25C, G26A, C27A, U28C, G31A
# DNA 1: CAATCTGAATTCCGGTCTCCC
# DNA 2: TGGTGGCTACGACGGGATT
# B22: GGUGCGU (DNA:RNA)
# RNA: B15 RNA with A25G, C27U, U28G, C30G, G31U
# DNA 1: CAATCTGAATTCCGGTCTCCC
# DNA 2: TGGTGGCTACGACGGGATT
# B23: UUUGACC (DNA:RNA)
# RNA: B1 RNA with G27U, C28G, G29A, A30C, U31C
# DNA 1: CAATCTGAATTCCGGTCTCCC
# DNA 2: TGGTGGCTACGACGGGATT
# B24: UCGAGGA (DNA:RNA)
# RNA: B1 RNA with U26C, C28A, A30G, U31A
# DNA 1: CAATCTGAATTCCGGTCTCCC
# DNA 2: TGGTGGCTACGACGGGATT
# B25: UCCGUUG (DNA:RNA)
# RNA: B15 RNA with A25U, G26C, U28G, C29U, C30U
# DNA 1: CAATCTGAATTCCGGTCTCCC
# DNA 2: TGGTGGCTACGACGGGATT
# B26: ACUGCUC (DNA:RNA)
# RNA: B15 RNA with G26C, C27U, U28G, C30U, G31C
# DNA 1: CAATCTGAATTCCGGTCTCCC
# DNA 2: TGGTGGCTACGACGGGATT
# B27: UUCUACC (DNA:RNA)
# RNA: B15 RNA with A25U, G26U, C29A, G31C
# DNA 1: CAATCTGAATTCCGGTCTCCC
# DNA 2: TGGTGGCTACGACGGGATT
# B28: UUAAGGG (DNA:RNA)
# RNA: B1 RNA with G27A, C28A, A30G, U31G
# DNA 1: CAATCTGAATTCCGGTCTCCC
# DNA 2: TGGTGGCTACGACGGGATT
# B29: AAUCCUC (DNA:RNA)
# RNA: B15 RNA with G26A, C27U, U28C, C30U, G31C
# DNA 1: CAATCTGAATTCCGGTCTCCC
# DNA 2: TGGTGGCTACGACGGGATT
# B30: UGUUUUC (DNA:RNA)
# RNA: B15 RNA with A25U, C27U, C29U, C30U, G31C
# DNA 1: CAATCTGAATTCCGGTCTCCC
# DNA 2: TGGTGGCTACGACGGGATT
# B31: CACCUAU (DNA:RNA)
# RNA: B1 RNA with U25C, U26A, G27C, G29U
# DNA 1: CAATCTGAATTCCGGTCTCCC
# DNA 2: TGGTGGCTACGACGGGATT
# Biological target: T1, RBFOX1 RRM RbFoxmut (Fox-RRM*)
# Assay: EMSA; HiTS-Eq, 1 nM pool, 10 min; buffer printed only for the single-RNA assays: 10 mM Tris pH 7.5, 150 mM NaCl, 3.4 mM EDTA, 0.001% NP-40, 30 C
# Conditions: tags: His6 N-terminal (pET28a); label: 5' 32P
# Summary of the method: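 These values rest on relative association constants, computed from read-count changes of each RNA species versus the control reaction and normalised to the cognate motif. Reads came from free RNA recovered by 8% native PAGE after purified RbFox RRM (wild type or mutant) at increasing concentrations was equilibrated for 10 min in 50 µL with 1 nM of a 5′-radiolabelled pool with 7 randomized nucleotides and DNA-annealed flanks.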
row,Binder,binding signal
1,B1,0.0679 KA relative to UGCAUGU
2,B2,0.0917 KA relative to UGCAUGU
3,B3,0.0945 KA relative to UGCAUGU
4,B4,0.0747 KA relative to UGCAUGU
5,B5,0.0505 KA relative to UGCAUGU
6,B6,0.0675 KA relative to UGCAUGU
7,B7,0.0835 KA relative to UGCAUGU
8,B8,0.0777 KA relative to UGCAUGU
9,B9,0.07 KA relative to UGCAUGU
10,B10,0.123 KA relative to UGCAUGU
11,B11,0.093 KA relative to UGCAUGU
12,B12,0.0905 KA relative to UGCAUGU
13,B13,0.0848 KA relative to UGCAUGU
14,B14,0.0993 KA relative to UGCAUGU
15,B15,0.0767 KA relative to UGCAUGU
16,B16,0.0957 KA relative to UGCAUGU

row,Binder,binding signal
1,B17,0.113 KA relative to UGCAUGU
2,B18,0.0691 KA relative to UGCAUGU
3,B19,0.176 KA relative to UGCAUGU
4,B20,0.126 KA relative to UGCAUGU
5,B21,0.0707 KA relative to UGCAUGU
6,B22,0.169 KA relative to UGCAUGU
7,B23,0.0511 KA relative to UGCAUGU
8,B24,0.0746 KA relative to UGCAUGU
9,B25,0.13 KA relative to UGCAUGU
10,B26,0.0835 KA relative to UGCAUGU
11,B27,0.0936 KA relative to UGCAUGU
12,B28,0.0651 KA relative to UGCAUGU
13,B29,0.0428 KA relative to UGCAUGU
14,B30,0.0709 KA relative to UGCAUGU
15,B31,0.112 KA relative to UGCAUGU
